Measured values as given in PubChem BioAssay AID463173 (ICCB-Longwood Screening Facility, Harvard Medical School, 2010).
Among all 52,000 compounds or so, about 1,700 (3.3%) were called active. Cut-off read from the data, not from the text of the source: active = survival mostly below about 52% (no sharp cut-off); inactive = mostly above about 56%. The list shows a part of the results.

Tested on: Wild type
Experiment: S. aureus survival, RN4220 and DeltatarO strains – OD600, teichoic acid synthesis inhibitors, primary screen (AID 463173)
Conditions: S. aureus RN4220 wild type/DeltatarO growth, OD600, 18 h, hits give low values, screened at 18.75 µg/mL (by protocol)

Row | Compound | survival
1 | O=C(NC1CC2CCCC(C1)N2C(=O)Nc1ccccc1)C1CC1 (configuration not stated) | inactive: 98%
2 | CCOc1ccc(-c2nn(-c3ccc(F)cc3)c3c2cnc2ccc(F)cc23)cc1 | inactive: 86%
3 | Cc1ccc2oc(-c3ccc(Cl)cc3)c(O)c(=O)c2c1 | inactive: 71%
4 | Cc1cc(C)cc(NC(=O)c2ccc3oc(=O)c(S(=O)(=O)c4ccc(F)cc4)cc3c2)c1 | inactive: 94%
5 | COc1ccc(N2CCN(C(=O)C3CCN(S(=O)(=O)c4cccc5nonc45)CC3)CC2)cc1 | inactive: 111%
6 | CCN1CCN(CCCNC(=O)CS(=O)(=O)Cc2nc(-c3ccccc3C)oc2C)CC1 | inactive: 81%
7 | COc1cccc2sc(NC(=O)c3ccc(S(=O)(=O)N4CCC(C)CC4)cc3)nc12 | inactive: 69%
8 | CCOC(=O)c1noc2ncnc(Nc3cc(Cl)c(OC)cc3OC)c12 | inactive: 71%
9 | COc1ccc(NC(=O)Cn2c(=O)c3cccn3c3ccccc32)cc1Cl | inactive: 83%
10 | COc1ccc(-c2nc3sc(CCNC(=O)Cc4ccc(F)cc4)c(C)n3n2)cc1 | inactive: 78%
11 | Cc1sc(-c2cc3ccccc3oc2=O)nc1-c1ccc(Cl)c(Cl)c1 | inactive: 82%
12 | COc1ccc(C)cc1NC(=O)Nc1cc(C(=O)NCc2ccc(C)cc2)ccc1N1CCCC1 | inactive: 85%
13 | CCOc1ccccc1OCCCCn1c(-c2ccc(Cl)cc2)nc2ccccc2c1=O | inactive: 45%
14 | CCOc1ccc(CNCc2c(C(=O)O)c(C)n(Cc3ccc(C)cc3)c2C)cc1 | inactive: 104%
15 | Cc1nnc(N2CCCC(C(=O)NCCN(C)C)C2)c2nn(-c3ccccc3)c(C)c12 (configuration not stated) | inactive: 69%
16 | CCc1ccccc1Nc1ccc(C(=O)O)cn1 | inactive: 113%
17 | O=S(=O)(Nc1ccc(-c2ccc(N3CCCC3)nn2)cc1)c1ccc(C(F)(F)F)cc1 | inactive: 64%
18 | CCC(Sc1nc(-c2ccccc2)[nH]c1S(=O)(=O)c1ccc(C)cc1)C(=O)O (configuration not stated) | inactive: 84%
19 | Cc1ccc(-n2ncc3c(N(C)C)ncnc32)cc1Cl | inactive: 87%

Row | Compound | survival
20 | Cc1cccc(-c2nc(CCNC(=O)c3ccc(Br)o3)cs2)c1 | inactive: 69%
21 | Cc1cc(C)cc(OC(=O)c2cc(-c3ccc(Cl)cc3)on2)c1 | inactive: 87%
22 | Cc1cc(=O)n(Cc2ccc(F)cc2Cl)c2c1c(C)nn2C | inactive: 47%
23 | CC(C)c1ccc(-c2noc(SCC(=O)N3CCCCC3C)n2)cc1 (configuration not stated) | inactive: 82%
24 | O=C(NCCCN1CCN(c2ccc(F)cc2)CC1)c1cc2c(Cl)nc3ccccc3c2s1 | inactive: 82%
25 | CCN(CC)C(=O)Cn1c(=O)n(-c2ccc(C)c(C)c2)c(=O)c2c(C)c(C(=O)N(CC)CC)sc21 | inactive: 87%
26 | CC(=O)c1sc(NC(=O)c2c(-c3ccccc3)c(-c3ccccc3)nn(C)c2=O)nc1C | inactive: 54%
27 | CCN1CCN(C(=O)c2cnn(-c3ccc(F)cc3F)c2C2CCN(C(=O)OC(C)(C)C)CC2)CC1 | inactive: 82%
28 | CCOc1ccc(NC(=O)c2c(NCc3cccnc3)sc3c2CCC(C)C3)cc1 (configuration not stated) | inactive: 140%
29 | CC1CCc2onc(C(=O)N3CCN(c4ccc(F)cc4)CC3)c2C1 (configuration not stated) | inactive: 88%
30 | CCCCCN1C(C(=O)c2ccccc2)=C(NC(=O)c2ccc(C)cc2)c2ccccc2S1(=O)=O | inactive: 77%
31 | CC1CCC(N2CC(=O)N(CCC3=CCCCC3)C(c3ccc(F)cc3)C2=O)CC1 (configuration not stated) | inactive: 84%
32 | COc1ccc(OC)c(NC(=O)c2cnc(Nc3ccc(C)c(Cl)c3)c3ccccc23)c1 | inactive: 72%
33 | Cn1c(CO)nc2cc(N)ccc21 | inactive: 110%
34 | COc1cc(Cl)c(NC(=O)CCc2nc3cccnc3n2-c2ccccc2)c(OC)c1 | inactive: 82%
35 | CC(=O)Nc1c(C)nn(-c2ccccc2)c1N1CCC(C(=O)NCc2cccc(Cl)c2)CC1 | inactive: 71%
36 | Cc1ccc(NC(=O)c2cnc(SCC(=O)N3CCCc4ccccc43)n(C)c2=O)cc1 | inactive: 71%
37 | CC(C)(C)OC(=O)N1CCC(c2c(C(=O)N3CCN(c4ccccc4F)CC3)cnn2-c2ccccc2Cl)CC1 | inactive: 70%
38 | O=C(NCCc1nc2ccccc2n1Cc1c(F)cccc1Cl)c1ccco1 | inactive: 95%

Row | Compound | survival
39 | O=C(CSc1nc2cc3ccccc3cc2[nH]1)Nc1ccc(F)cc1 | inactive: 76%
40 | CC1=C(C(=O)Nc2ccc(Cl)cc2)C(c2cccs2)n2nc(SCc3cccc(C)c3)nc2N1 (configuration not stated) | inactive: 103%
41 | Cc1ccc2cc(C(c3nnnn3C3CCCC3)N3CCCc4ccccc43)c(=O)[nH]c2c1 (configuration not stated) | inactive: 108%
42 | CCOc1ccc(NC(=O)CCNS(=O)(=O)c2ccc3c(c2)CCCC(=O)N3)cc1 | inactive: 87%
43 | CC(=O)NC1Sc2ccccc2N=C1c1ccccc1 (configuration not stated) | inactive: 112%
44 | Cc1ccc(C(=O)Nc2nnc(S(=O)(=O)N3CCCCCC3)s2)cc1 | inactive: 79%
45 | COc1ccc(CNC(=O)CCc2c(C)c3cc4c(C)c(C)oc4cc3oc2=O)cc1 | inactive: 108%
46 | CC(=O)Nc1ccc(-c2nnc3n(Cc4ccc(C)cc4)c(=O)c4ccccc4n23)cc1 | inactive: 109%
47 | O=c1c(NCc2ccccc2Cl)nccn1-c1ccccc1 | active: -1%
48 | CCOC(=O)CCC(=O)Nc1nnc2n1CCS2 | inactive: 65%
49 | CC(=O)N1CCc2cc(S(=O)(=O)NC(CC(C)C)C(=O)NCc3ccccc3Cl)ccc21 (configuration not stated) | inactive: 73%
50 | Cc1c(NC(=O)c2cc(-c3ccccc3O)on2)c(=O)n(-c2ccccc2)n1C | inactive: 76%
51 | CCCCCOc1ccc(Cn2c(=O)oc3ccc(C)cc32)cc1OC | active: -6%
52 | CCC(=O)N1CCc2cc(Br)cc(S(=O)(=O)N3CCC(C(=O)Nc4ccccc4F)CC3)c21 | inactive: 80%
53 | CCC(C)Nc1nc(NC)nc(NC(C)CC)n1 (configuration not stated) | inactive: 114%
54 | CCCCS(=O)(=O)c1oc(-c2cccs2)nc1S(=O)(=O)c1ccc(F)cc1 | inactive: 82%
55 | O=C1CC(c2cc(F)cc(F)c2)c2cc3c(cc2N1)OCO3 (configuration not stated) | inactive: 84%
56 | Cc1c(C(=O)N2CCN(c3ccc(F)cc3)CC2)sc2nc3n(c(=O)c12)CCC3 | inactive: 89%
57 | Cc1cc(C)cc(C(=O)n2nc(C)c(S(=O)(=O)N3CCCCCC3)c2C)c1 | inactive: 117%
